Assay [1] deals with T1, Growth hormone releasing hormone (human), Q02643.
T1 chain: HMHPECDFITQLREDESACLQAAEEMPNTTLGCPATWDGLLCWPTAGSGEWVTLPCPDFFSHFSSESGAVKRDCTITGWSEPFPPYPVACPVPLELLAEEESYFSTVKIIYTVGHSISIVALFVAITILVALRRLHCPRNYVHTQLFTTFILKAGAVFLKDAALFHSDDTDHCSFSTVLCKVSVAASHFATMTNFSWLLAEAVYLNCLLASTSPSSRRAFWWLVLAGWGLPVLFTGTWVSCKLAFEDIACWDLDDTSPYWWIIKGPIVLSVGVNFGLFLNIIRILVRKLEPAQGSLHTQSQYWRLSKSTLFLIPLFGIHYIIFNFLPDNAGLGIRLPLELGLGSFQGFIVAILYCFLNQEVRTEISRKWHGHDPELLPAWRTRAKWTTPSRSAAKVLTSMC
The assay is described as follows: co-IP; multiplexed suspension bead array (SBA) immunoassay: clarified lysates (1% DM; 50 mM Hepes, 1 mM EDTA, 150 mM NaCl, 5 mM MgCl2, pH 7.4) of HEK293F cells cotransfected with tagged GPCR and RAMP, diluted to 50 ug/ml, incubated overnight at 4°C with bar-coded beads carrying anti-tag (HA, 1D4, FLAG, OLLAS), anti-GPCR or anti-RAMP Abs; the partner detected with a PE-conjugated anti-tag mAb; Luminex FlexMap 3D, MFI. Conditions: remark: other sources report otherwise.

The target of assay [2] is T2, Glucagon-like receptor 1 (human), P43220.
T2 chain: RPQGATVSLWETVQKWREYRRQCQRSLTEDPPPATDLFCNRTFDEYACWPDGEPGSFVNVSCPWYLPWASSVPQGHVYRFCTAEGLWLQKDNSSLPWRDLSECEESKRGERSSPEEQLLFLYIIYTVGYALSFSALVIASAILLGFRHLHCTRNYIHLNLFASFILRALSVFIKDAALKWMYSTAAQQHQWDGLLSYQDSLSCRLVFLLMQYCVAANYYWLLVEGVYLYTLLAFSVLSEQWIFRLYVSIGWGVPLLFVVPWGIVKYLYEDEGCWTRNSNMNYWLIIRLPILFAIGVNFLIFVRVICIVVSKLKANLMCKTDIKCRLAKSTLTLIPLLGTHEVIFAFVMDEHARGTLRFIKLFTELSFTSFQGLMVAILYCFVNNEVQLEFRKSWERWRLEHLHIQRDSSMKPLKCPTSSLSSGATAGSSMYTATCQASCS
The description is as above. The following applies: remark: other sources report otherwise.

No constants are given. Whether binding was seen depends on the method and setting. In cells and extracts the contact can be indirect. Some results given as binding are weak or reduced against the parent protein; the word gives no strength. For part of these data: Sequences can lack the tags named with a protein.

B1: Receptor activity-modifying protein 1, O60894 27-148 (protein)
chain: CQEANYGALLRELCLTQFQVDMEAVGETLWCDWGRTIRSYRELADCTWHMAEKLGCFWPNAEVDRFFLAVHGRYFRSCPISGRAVRDPPGSILYPFIVVPITVTLLVTALVVWQSKRTEGIV
For B1, the results for the binding entry in assay [1] and in assay [2] were “no binding” and “binds”, respectively.

B2: Receptor activity-modifying protein 2, O60895 43-175 (protein)
chain: QPLPTTGTPGSEGGTVKNYETAVQFCWNHYKDQMDPIEKDWCDWAMISRPYSTLRDCLEHFAELFDLGFPNPLAERIIFETHQIHFANCSLVQPTFSDPPEDVLLAMIIAPICLIPFLITLVVWRSKDSEAQA
Consider B2, for which, in assay [2], the binding result was “binds”.

Values taken from publication PMC6750928.
